# The list shows a part of the results. Repeats are few or missing, and single values can be far off.
# Key:
# Assay in all cases: cell count relative to DMSO control; melanoma cells; higher = more viable cells
# Settings in all cases: library dose: standard library concentration; 72 h
# SkMel30 = test system: SkMel30
# SkMel5 = test system: SkMel5
# UACC257 = test system: UACC257
# UACC62 = test system: UACC62
# WM115 = test system: WM115
# WM1716 = test system: WM1716
# WM1745 = test system: WM1745
# WM3526 = test system: WM3526
# WM3619 = test system: WM3619
# WM451Lu = test system: WM451Lu
# 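Note: cells treated in 1,536-well plates, then fixed and DAPI-stained, with nuclei counted from automated high-throughput microscope images.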
compound,measurement,setting,value
"Cc1cc([N+](=O)[O-])ccc1NS(=O)(=O)c1cc(Cl)ccc1Cl + Cn1cc(/C=C2\C(=O)Nc3cccnc32)c2ccccc21 [GW441756] (first compound 5 µM, partner dose 2 µM)",cell count,SkMel30,77.4%
same,cell count,SkMel5,51.6%
same,cell count,UACC257,69.2%
same,cell count,UACC62,83.8%
same,cell count,WM115,76.9%
same,cell count,WM1716,85.1%
same,cell count,WM1745,65.9%
same,cell count,WM3526,73.4%
same,cell count,WM3619,75.3%
same,cell count,WM451Lu,99.7%
"N#Cc1c(O)c2c(-c3ccc(-c4ccccc4O)cc3)csc2[nH]c1=O + COc1cc(N2CCC(N3CCN(C)CC3)CC2)ccc1Nc1ncc(Cl)c(Nc2ccccc2S(=O)(=O)C(C)C)n1 [NVP-TAE684] (first compound 10 µM, partner dose 0.4 µM)",cell count,SkMel30,123%
same,cell count,SkMel5,71%
same,cell count,UACC257,89.6%
same,cell count,UACC62,114%
same,cell count,WM115,131%
same,cell count,WM1716,99.2%
same,cell count,WM1745,65.7%
same,cell count,WM3526,74.6%
same,cell count,WM3619,93%
same,cell count,WM451Lu,80.1%
"Oc1cc(-c2nc(-c3ccccc3)[nH]c2-c2ccncc2)ccc1Cl + Oc1nc(-c2ccc(C(F)(F)F)cc2)nc2c1CSCC2 [XAV939] (first compound 1 µM, partner dose 10 µM)",cell count,SkMel30,95.2%
same,cell count,SkMel5,86.1%
same,cell count,UACC257,87.2%
same,cell count,UACC62,70.4%
same,cell count,WM115,62.1%
same,cell count,WM1716,66.1%
same,cell count,WM1745,55.2%
same,cell count,WM3526,62.1%
same,cell count,WM3619,65.3%
same,cell count,WM451Lu,64.4%
"COc1ccc2c(c1)CCC1C2CCC2(C)C(NCCCCCCN3C(=O)C=CC3=O)CCC12 (stereo not given) + O=C(O)C(=O)Nc1sc2c(c1C(=O)O)CCNC2 [TCS401] (first compound 2 µM, partner dose 8.33333 µM)",cell count,SkMel30,92.5%
same,cell count,SkMel5,65%
same,cell count,UACC257,79.3%
same,cell count,UACC62,94.7%
same,cell count,WM115,72.2%
same,cell count,WM1716,69.9%
same,cell count,WM1745,67.3%
same,cell count,WM3526,76.2%
same,cell count,WM3619,60.6%
same,cell count,WM451Lu,74.3%
"COc1ccc(-c2ccc3c(N4CCOCC4)nc(N4C[C@@H](C)O[C@@H](C)C4)nc3n2)cc1CO + CCCCCCCCCCCC1=C(O)C(=O)C=C(O)C1=O [Embelin] (first compound 0.1 µM, partner dose 6 µM)",cell count,SkMel30,74.6%
same,cell count,SkMel5,70.3%
same,cell count,UACC257,94.1%
same,cell count,UACC62,92.9%
same,cell count,WM115,73.4%
same,cell count,WM1716,85.6%
same,cell count,WM1745,104%
same,cell count,WM3526,79.1%
same,cell count,WM3619,94.4%
same,cell count,WM451Lu,91.2%
"COc1ccc(-c2ccc3c(N4CCOCC4)nc(N4C[C@@H](C)O[C@@H](C)C4)nc3n2)cc1CO + COc1cc2ncnc(Nc3ccc(Oc4ccccc4)cc3)c2cc1OC [SrcI1] (first compound 0.1 µM, partner dose 10 µM)",cell count,SkMel30,79.5%
same,cell count,SkMel5,56.6%
same,cell count,UACC257,74.7%
same,cell count,UACC62,71.1%
same,cell count,WM115,54.7%
same,cell count,WM1716,64.9%
same,cell count,WM1745,52%
same,cell count,WM3526,46%
same,cell count,WM3619,42%
same,cell count,WM451Lu,72.1%
"Cn1cc(/C=C2\C(=O)Nc3cccnc32)c2ccccc21 + CCCCCCCCCCCC1=C(O)C(=O)C=C(O)C1=O [Embelin] (first compound 2 µM, partner dose 6 µM)",cell count,SkMel30,89.8%
same,cell count,SkMel5,61.1%
same,cell count,UACC257,67.9%
same,cell count,UACC62,86.3%
same,cell count,WM115,94.5%
same,cell count,WM1716,80.9%
same,cell count,WM1745,73.5%
same,cell count,WM3526,93.8%
same,cell count,WM3619,78.5%
same,cell count,WM451Lu,82.3%
"COc1ccc(-c2ccc3c(N4CCOCC4)nc(N4C[C@@H](C)O[C@@H](C)C4)nc3n2)cc1CO + COc1cc(N2CCC(N3CCN(C)CC3)CC2)ccc1Nc1ncc(Cl)c(Nc2ccccc2S(=O)(=O)C(C)C)n1 [NVP-TAE684] (first compound 0.1 µM, partner dose 0.4 µM)",cell count,SkMel30,91.5%
same,cell count,SkMel5,44.7%
same,cell count,UACC257,79.5%
same,cell count,UACC62,56.3%
same,cell count,WM115,55.2%
same,cell count,WM1716,75%
same,cell count,WM1745,51.4%
same,cell count,WM3526,47.4%
same,cell count,WM3619,53.4%
same,cell count,WM451Lu,51.7%
"COc1cc2ncnc(Nc3ccc(Oc4ccccc4)cc3)c2cc1OC + CCCCCCCCCCCC1=C(O)C(=O)C=C(O)C1=O [Embelin] (first compound 10 µM, partner dose 6 µM)",cell count,SkMel30,99.2%
same,cell count,SkMel5,70.2%
same,cell count,UACC257,99.2%
same,cell count,UACC62,99%
same,cell count,WM115,85.8%
same,cell count,WM1716,91.1%
same,cell count,WM1745,62.6%
same,cell count,WM3526,67.2%
same,cell count,WM3619,90.4%
same,cell count,WM451Lu,95.9%
"COc1ccc2c(c1)CCC1C2CCC2(C)C(NCCCCCCN3C(=O)C=CC3=O)CCC12 (stereo not given) + COc1cc(N2CCC(N3CCN(C)CC3)CC2)ccc1Nc1ncc(Cl)c(Nc2ccccc2S(=O)(=O)C(C)C)n1 [NVP-TAE684] (first compound 2 µM, partner dose 0.4 µM)",cell count,SkMel30,121%
same,cell count,SkMel5,64.9%
same,cell count,UACC257,80%
same,cell count,UACC62,78.6%
same,cell count,WM115,70.9%
same,cell count,WM1716,79.2%
same,cell count,WM1745,49.5%
same,cell count,WM3526,79.7%
same,cell count,WM3619,87.3%
same,cell count,WM451Lu,70.7%
"Oc1nc(-c2ccc(C(F)(F)F)cc2)nc2c1CSCC2 + COc1cc(N2CCC(N3CCN(C)CC3)CC2)ccc1Nc1ncc(Cl)c(Nc2ccccc2S(=O)(=O)C(C)C)n1 [NVP-TAE684] (first compound 10 µM, partner dose 0.4 µM)",cell count,SkMel30,130%
same,cell count,SkMel5,71.1%
same,cell count,UACC257,76.8%
same,cell count,UACC62,86.8%
same,cell count,WM115,76%
same,cell count,WM1716,78.4%
same,cell count,WM1745,45%
same,cell count,WM3526,86.3%
same,cell count,WM3619,67.8%
same,cell count,WM451Lu,91.3%
"CCN(CC)CCCCNc1ncc2cc(-c3cc(OC)cc(OC)c3)c(NC(=O)NC(C)(C)C)nc2n1 + Oc1cc(-c2nc(-c3ccccc3)[nH]c2-c2ccncc2)ccc1Cl [L779450] (first compound 0.5 µM, partner dose 1 µM)",cell count,SkMel30,94.3%
same,cell count,SkMel5,71.5%
same,cell count,UACC257,95.6%
same,cell count,UACC62,61.3%
same,cell count,WM115,54.3%
same,cell count,WM1716,63.5%
same,cell count,WM1745,50.6%
same,cell count,WM3526,55.2%
same,cell count,WM3619,75.6%
same,cell count,WM451Lu,69.5%

# From the supplement of paper PMC4604168 (melanoma cell lines)
